Reference: PubChem BioAssay AID488969 (Vanderbilt High Throughput Screening Facility, 2010)
Over roughly 110,000 compounds, “z-score” has its median near -0.1; the highest 2% begin near 2. This is one part of the list. Active and inactive are the calls of the source.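 The calls were made as follows: active = z-score in the third read window above 3 or below -3; inactive = the rest.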

Target: Metabotropic glutamate receptor 8 (Rattus norvegicus) (UniProt P70579)
Assay: rat mGluR8 modulators via GIRK flux, primary screen, cell-based, thallium flux, HTS (AID 488969)
Settings: HEK293 rat mGluR8, GIRK (G protein-gated inwardly rectifying potassium channel) thallium flux, FluoZin2; at 10 µM; stronger effect = higher value; submaximal glutamate (EC20) added with thallium

Chain of UniProt P70579 (P70579 whole entry, looked up): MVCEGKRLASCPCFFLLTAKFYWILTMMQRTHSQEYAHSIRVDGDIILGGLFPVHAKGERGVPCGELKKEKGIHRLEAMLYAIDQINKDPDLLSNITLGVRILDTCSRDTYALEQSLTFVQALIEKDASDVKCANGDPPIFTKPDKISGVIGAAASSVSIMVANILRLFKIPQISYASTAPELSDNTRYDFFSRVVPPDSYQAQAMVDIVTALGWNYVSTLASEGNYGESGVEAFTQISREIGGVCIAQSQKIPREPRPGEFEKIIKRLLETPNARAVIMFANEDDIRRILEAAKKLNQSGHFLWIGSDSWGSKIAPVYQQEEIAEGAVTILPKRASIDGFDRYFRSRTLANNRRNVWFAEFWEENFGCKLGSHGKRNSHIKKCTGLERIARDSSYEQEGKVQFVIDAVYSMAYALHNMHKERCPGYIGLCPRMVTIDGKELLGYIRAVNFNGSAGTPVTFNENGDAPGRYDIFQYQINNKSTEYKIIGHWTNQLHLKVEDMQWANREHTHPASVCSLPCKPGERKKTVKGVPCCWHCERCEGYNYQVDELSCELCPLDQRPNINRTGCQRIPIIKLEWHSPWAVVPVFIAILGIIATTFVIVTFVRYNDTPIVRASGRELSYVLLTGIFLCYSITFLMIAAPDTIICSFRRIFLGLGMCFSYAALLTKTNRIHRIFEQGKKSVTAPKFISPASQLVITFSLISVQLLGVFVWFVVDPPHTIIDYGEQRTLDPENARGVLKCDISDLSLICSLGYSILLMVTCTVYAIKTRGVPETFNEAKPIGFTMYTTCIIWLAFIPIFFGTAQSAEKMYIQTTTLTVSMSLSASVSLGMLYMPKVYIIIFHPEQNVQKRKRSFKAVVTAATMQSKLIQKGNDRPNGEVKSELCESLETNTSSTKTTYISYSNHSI

Structure (SMILES)	z-score
Cc1nc2ccc(NC(=O)c3cc(S(=O)(=O)N4CCOCC4)ccc3C)cc2s1	-0.113
O=C(CSc1nnc(COc2ccc(Cl)cc2)o1)N1c2ccccc2CCc2ccccc21	-0.061
O=C(Cc1ccccc1)NNC(=O)Nc1cccc(Cl)c1	-0.0185
COc1ccc(/C(N)=N/OC(=O)Cc2cccs2)cc1	-0.337
COc1ccc(NC(=O)CN2CCN(S(=O)(=O)c3ccc(Cl)cc3)CC2)cc1	0.802
O=C(c1ccc(N2CCN(S(=O)(=O)c3ccccc3)CC2)c([N+](=O)[O-])c1)N1CCOCC1	-0.0896
CCOC(=O)c1ccc(NC(=O)NCc2ccn(CC)n2)cc1	-0.272
CC(NC(=O)OC(C)(C)C)C(=O)Oc1cc2oc(=O)cc(-c3ccccc3)c2cc1Cl (stereo unspecified)	-0.18
CN(C(=O)COC(=O)c1cccnc1Nc1cccc(C(F)(F)F)c1)C1CCS(=O)(=O)C1 (stereo unspecified)	-0.511
NC(=O)C1(N2CCCCC2)CCN(CC(=O)Nc2ccc(Oc3ccccc3)cc2)CC1	-0.0441
C/C(=N\NS(=O)(=O)c1ccc(C)cc1)c1ccc(Br)s1	-0.207
CCCN(Cc1cc2cc(C)ccc2[nH]c1=O)C(=O)c1cccc(OC)c1	1.58
O=C(NCC12CC3CC(C1)CC(CNC(=O)N1CCCC1)(C3)C2)N1CCCC1	-0.0819
CCCC(=O)N=C1SC2CS(=O)(=O)CC2N1c1ccc(C(C)=O)cc1 (stereo unspecified)	1.05
CCCC(=O)Nc1ccc(C(=O)N/N=C/c2ccc([N+](=O)[O-])o2)cc1	-0.288
O=C(OCC#CCSc1nnc(-c2cccc3ccccc23)o1)c1ccco1	-0.103
COc1cc(/C=N/O)ccc1OCc1ccc([N+](=O)[O-])cc1	-0.287
O=C(NC(=S)NCc1ccccc1)c1ccc2c(c1)OCO2	1.71
C/C(=N\NC(=O)c1cc(Cl)ccc1O)c1ccc(Br)s1	active: 6.48
Cc1ccc(S(=O)(=O)N2CCC(C(=O)NNS(=O)(=O)c3ccc(Cl)cc3)CC2)cc1	-0.204
C=CCc1cccc2cc(C(=O)NC(C)(C)C)c(=O)oc12	-0.356
O=[N+]([O-])c1ccc(NC(=S)N2CCc3ccccc3C2)cc1	0.128

Structure (SMILES)	z-score
Cc1ccc(-c2nnc(Nc3ccccc3)c3ccccc23)cc1S(=O)(=O)NCC1CCCO1 (stereo unspecified)	-0.462
CC(=O)Nc1ccc(-n2nnnc2SCC(=O)N2CCN(C(=O)c3ccco3)CC2)cc1	-0.165
Cc1cc(C)cc(NC(=O)CSc2nc3[nH]ncc3c(=O)[nH]2)c1	-0.54
COc1cc(/C=C/C(=O)OCC(=O)NC(=O)NC(C)C)ccc1OCC#N	-0.426
CCOc1ccc2nc(N3CCOCC3)nc(C)c2c1	-0.106
COc1ccc(NCC(=O)Nc2ccc(Cl)cc2C)c(OC)c1	-0.192
Cc1ccccc1NC(=O)Cn1c(=O)n(Cc2ccccc2)c(=O)c2c(C)c(C)sc21	0.105
O=C(CSc1nc2ccccc2o1)NCc1ccc2c(c1)OCO2	0.00646
Cc1ccc(C(=O)NCCSc2ccccc2)cc1S(=O)(=O)Nc1ccccc1	-0.224
C/C(=N\O)C1/C(=N/O)CC2C1C2(C)C (stereo unspecified)	-0.147
Cc1ccc(S(=O)(=O)CC(c2ccccc2)N2CCOCC2)cc1 (stereo unspecified)	-0.145
CCOc1ccc(NC(=O)/C(=C\c2ccc(OC(C)=O)c(OC)c2)NC(C)=O)cc1	-0.207
O=C(Nc1cccnc1)C1CCCN(S(=O)(=O)c2cccc3nsnc23)C1 (stereo unspecified)	-0.00732
Nc1nc2ccc(S(=O)(=O)N3CCCCC3)cc2s1	-0.0709
CCOC(=O)C1CCN(C(=O)N(C)C)CC1	-2.73
CCc1nnc(NC(=O)CSc2nc3c(cc2C#N)CCC3)s1	0.013
O=C(/C(=C/c1ccc(Cl)cc1)c1nc2ccccc2[nH]1)c1cccs1	-0.626
COc1ccc(-n2ncc3c(NCCCn4ccnc4)ncnc32)cc1	-0.185
NC(=O)COC(=O)c1oc2ccccc2c1CSc1ccc(Cl)cc1	-0.126
CC(=O)NS(=O)(=O)c1ccc(NC(=O)C2c3ccccc3Oc3ccccc32)cc1	-0.11
CCCn1c(SCC(=O)NCc2ccccc2)nnc1-c1ccncc1	0.519
CS(=O)(=O)N(CCc1ccccc1)CC(=O)Nc1ccc2c(c1)OCO2	0.0607

Structure (SMILES)	z-score
CCCCCOC(=O)C1=C(C)N(C)C(=O)NC1c1cc(Br)c(O)c(OC)c1 (stereo unspecified)	-0.227
N#Cc1nc(-c2cccs2)oc1N1CCN(Cc2ccccc2)CC1	-0.142
CC(=O)OC1CCC2(C)C(COc3ccc4ccc(=O)oc4c3)C(C)(O)CCC2C1(C)C (stereo unspecified)	-0.078
COc1ccc(-c2nc(-c3ccccc3)c(-c3cccs3)[nH]2)cc1OC	0.912
COc1cccc(NC(=O)C2CCN(Cc3cnn(-c4ccccc4)c3-n3cccc3)CC2)c1	-0.463
Cc1cc(=O)[nH]c(N/N=C/c2ccc(Br)s2)n1	-0.397
NC(=O)C(c1ccccc1)C1CCCCC1 (stereo unspecified)	-0.0785
CCN(CC)c1ccc(NC(=O)c2cccc(F)c2)c(C)c1	1.07
CC(=O)Nc1ccc(OCC(O)CN2CCN(c3cccc(Cl)c3)CC2)cc1 (stereo unspecified)	-0.0205
COc1ccc2cc(C(c3nnnn3C3CCCC3)N3CCCCCC3)c3nnnn3c2c1 (stereo unspecified)	0.0233
O=C(Nc1ccc(Cl)cc1)c1cccs1	-0.08
CCOc1ccc2nc(N/C(N)=N/C(=S)Nc3cccc(C)c3)nc(C)c2c1	-1.52
Cc1ccccc1Nc1nnc(SCC(=O)Nc2ccccc2[N+](=O)[O-])s1	-0.274
Cc1c(Br)c([N+](=O)[O-])nn1CC(=O)NCc1ccccn1	-0.0483
CC1=NN(C(N)=S)C(=O)C1N=Nc1ccc(C)cc1C (stereo unspecified)	active: 13.2
Cc1ccc(-c2cc(C(=O)Nc3cc(C)ccc3C)[nH]n2)c(O)c1	0.576
CC(C)C(=O)NCCSc1c[nH]c2ccccc12	-0.143
Oc1ccccc1-c1nc(NCc2ccco2)c2ccccc2n1	0.658
O=C(NC(=S)Nc1ccccc1N1CCOCC1)c1ccc(-c2cccc(Cl)c2)o1	0.758
Nc1c(-c2cccs2)cnn1-c1nc(-c2ccc(Cl)cc2Cl)cs1	-0.0632
CCOC(=O)c1ccc(NC(=O)CSc2nnc(Cc3cccs3)n2C)cc1	0.666
CC1(C)CC(=O)c2sc(NS(=O)(=O)Cc3ccccc3)nc2C1	-0.147

Structure (SMILES)	z-score
CCOC(=O)C1CCN(S(=O)(=O)c2ccc(OC)c(Cl)c2Cl)CC1	0.11
Cc1ccc(NC(=O)N(C2=NCC(C)S2)c2ccccc2)cc1 (stereo unspecified)	-0.0682
CCOc1ccccc1Nc1nc(-c2sc(NC(=O)c3ccccc3)nc2C)cs1	-0.0643
Cc1cccc(OCC(=O)NNC(=O)Nc2cccc(Cl)c2)c1C	-0.193
Cc1cccc(NC(=O)c2ccc(OCC(=O)NCc3ccccc3)cc2)c1C	-0.187
COc1ccccc1Cn1nnc2c(=O)[nH]c(C3CCN(C(=O)c4ccc(C)cc4)CC3)nc21	0.26
Cc1ccc2nc(Cl)c(C3CC(c4cccs4)=NN3C(=O)CCC(=O)O)cc2c1 (stereo unspecified)	-0.475
CCOC(=O)Cn1c(=N)n(Cc2ccccc2F)c2ccccc21	active: 3.72
CC(C)(C)C1CCc2onc(C(=O)Nc3cccc(O)c3)c2C1 (stereo unspecified)	-0.218
CCc1ccc(Nc2nnc(SCC(=O)Nc3cccnc3Cl)s2)cc1	-0.477
CC1CN(C(=O)c2ccc(CNS(=O)(=O)c3cccc(C(F)(F)F)c3)cc2)CC(C)O1 (stereo unspecified)	0.192
CCOc1ccc(C2C=C(c3ccc(F)cc3)Nc3ncnn32)cc1 (stereo unspecified)	-1.34
CCc1ccc(NC(=O)CS(=O)CC(=O)NCCCc2ccccc2)cc1 (stereo unspecified)	-0.695
CCCCCOc1ccc(NC(=O)C(=O)NCCC2=CCCCC2)cc1	-0.0173
COC(=O)C1=C(C)N=C2SC(C#N)=C(N)N2C1c1cc(OC)c(OC)c(OC)c1 (stereo unspecified)	-0.0707
CCOC(=O)c1sc(C)c2c1NC1(CCCCCC1)NC2=O	0.0807
CCOC(=O)C(C)Oc1cccc2c(=O)n(CC(=O)NCc3ccco3)ccc12 (stereo unspecified)	1.28
COc1ccc2sc(N3C(=O)CC(Cc4cccc(C)c4)C3=O)nc2c1 (stereo unspecified)	-0.0213
Cc1ccc(S(=O)(=O)n2cnc3ccccc32)c(C)c1	-0.214
Cc1cccc(Nc2n[nH]c(=S)s2)c1C	-0.0559
CC(Oc1cccc(F)c1)C(=O)/C=C\N(C)C (stereo unspecified)	-0.0867
Cc1ccc(NC(=O)c2ccc(OC(=S)N3CCOCC3)cc2)cc1	-0.252

Structure (SMILES)	z-score
c1ccc(Cn2ccnc2SCc2nnc(-c3ccccc3)o2)cc1	0.735
O=S(=O)(NC1CCCC1)c1cccc(S(=O)(=O)N2CCC(n3nnc4ccccc43)CC2)c1	0.212
Cc1ccc2nsnc2c1S(=O)(=O)N(Cc1cc2cccc(C)c2[nH]c1=O)CC1CCCO1 (stereo unspecified)	0.0318
CN(Cc1ccccc1)S(=O)(=O)c1ccc2[nH]cc(C(=O)NCC3CCCO3)c(=O)c2c1 (stereo unspecified)	0.0786
O=C(NNC(=O)c1cc(-c2ccccc2)n(-c2ccccc2)n1)c1cccc([N+](=O)[O-])c1	active: 6.49
COc1ccc(-c2c(C#N)c(N)nc3sc(C(=O)c4ccc(C)cc4)c(N)c23)cc1	-0.27
Cc1ccc(-c2noc(CCC(=O)NC3CCN(Cc4ccccc4)CC3)n2)cc1	2.02
COc1ccc(OC)c(NC(=O)c2cc3n(n2)C(C(F)(F)F)CC(c2ccc4c(c2)OCO4)N3)c1 (stereo unspecified)	-0.557
Cc1ccc(S(=O)(=O)N2CCN(C(=O)COc3ccc(-c4nnco4)cc3)CC2)cc1	1.66
CC1CCCN(c2c([N+](=O)[O-])c(=O)oc3ccccc23)C1 (stereo unspecified)	-0.991
Cc1nnc(N(Cc2ccco2)C(=O)c2cccc(C#N)c2)s1	-0.293
Cc1cc(C)nc(Sc2ccc([N+](=O)[O-])cc2[N+](=O)[O-])n1	0.0784
N#CCCNC(=O)CCN1CCOCC1	0.396
Cc1ccc(Oc2ccc(S(=O)(=O)N3CCOCC3)cc2C(N)=O)c(-n2nc3ccccc3n2)c1	0.0127
O=C(Nc1ccccc1)ON=C1CCCC1	0.427
COc1ccc(NCN2C(=O)CCC2=O)cc1	-0.415
COc1ccc2c(c1)cc(C)c1nnc(SCC(=O)N(C)c3nc(-c4ccccc4)cs3)n12	-0.134
c1ccc(C(c2ccccc2)N2CCN(Cc3nnnn3C3CCCCC3)CC2)cc1	0.164
